Test results as given in the supplement of paper PMC7826260.
This is one part of the list. Cleavage of a single-stranded DNA pool by Rep nickase domains was read by sequencing (1 h at 37 °C, 3 µM enzyme); the outer parts of the 90-letter strands are left off. A value is the log2 ratio of uncut reads to the pool without enzyme; uncut sequences lie near 0, cut ones below; no hit call is given. Counts are relative to all reads, so uncut sequences can rise above 0 when many others are cut.

Tests used:
Assay in all cases: uncleaved DNA left, log2 of reads against the no-enzyme library (log2 ratio); higher = less cleavage (more negative = more Rep cleavage of the k-mer); sequences stand for … in CTCGTCCG…ACCGGAGA
[1] = test system: T1, Rep nickase domain of Muscovy duck circovirus
T1 sequence (residues 1-111 of Rep, tag left off): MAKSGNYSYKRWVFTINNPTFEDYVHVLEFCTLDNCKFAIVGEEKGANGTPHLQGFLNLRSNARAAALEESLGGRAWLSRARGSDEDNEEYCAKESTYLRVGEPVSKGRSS
Description: (§1)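 A pool of 90-nt single-stranded DNAs with seven random bases just before the constant AC of the nick site (name = the seven bases) was cut by 3 µM recombinant His6-SUMO-tagged Rep nickase domain (300 nM DNA, 50 mM HEPES pH 8.0, 50 mM NaCl, 1 mM MnCl2, 1 h, 37 °C, three replicates). Uncut DNA was amplified and sequenced.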

[2] = test system: T2, Rep nickase domain of banana bunchy top virus
T2 sequence (residues 1-94 of Rep, tag left off): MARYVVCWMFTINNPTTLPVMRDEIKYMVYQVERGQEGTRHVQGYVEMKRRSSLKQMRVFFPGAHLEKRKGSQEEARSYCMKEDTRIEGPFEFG
Description: as §1

[3] = test system: T3, Rep nickase domain of cabbage leaf curl virus
T3 sequence (residues 1-116 of Rep, tag left off): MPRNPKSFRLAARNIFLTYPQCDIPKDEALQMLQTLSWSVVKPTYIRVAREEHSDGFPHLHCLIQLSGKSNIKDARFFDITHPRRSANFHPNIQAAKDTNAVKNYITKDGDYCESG
Description: as §1

[4] = test system: T4, Rep nickase domain of chickpea chlorotic dwarf virus
T4 sequence (residues 1-124 of Rep, tag left off): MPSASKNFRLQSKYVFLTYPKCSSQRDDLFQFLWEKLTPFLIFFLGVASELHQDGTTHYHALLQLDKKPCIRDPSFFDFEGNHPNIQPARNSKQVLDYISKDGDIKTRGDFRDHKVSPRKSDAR
Description: as §1

[5] = test system: T5, Rep nickase domain of faba bean necrotic yellows virus
T5 sequence (residues 1-98 of Rep, tag left off): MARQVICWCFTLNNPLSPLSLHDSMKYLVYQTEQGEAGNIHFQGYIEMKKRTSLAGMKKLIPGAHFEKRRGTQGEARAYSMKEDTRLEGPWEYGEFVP
Description: as §1

[6] = test system: T6, Rep nickase domain of maize striate mosaic virus
T6 sequence (residues 1-117 of Rep, tag left off): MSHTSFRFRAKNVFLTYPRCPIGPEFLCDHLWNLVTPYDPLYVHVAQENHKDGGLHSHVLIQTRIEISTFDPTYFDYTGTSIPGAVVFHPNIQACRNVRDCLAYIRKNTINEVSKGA
Description: as §1

[7] = test system: T7, Rep nickase domain of porcine circovirus 2
T7 sequence (residues 2-116 of Rep, tag left off): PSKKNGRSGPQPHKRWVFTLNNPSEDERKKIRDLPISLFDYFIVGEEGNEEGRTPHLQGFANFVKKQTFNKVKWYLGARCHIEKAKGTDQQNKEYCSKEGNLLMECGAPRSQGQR
Description: as §1

[8] = test system: T8, Rep nickase domain of tomato golden mosaic virus
T8 sequence (residues 1-124 of Rep, tag left off): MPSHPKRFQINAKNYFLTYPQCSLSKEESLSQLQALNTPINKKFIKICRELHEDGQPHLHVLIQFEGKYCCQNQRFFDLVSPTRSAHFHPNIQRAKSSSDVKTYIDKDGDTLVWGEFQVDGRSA
Description: as §1

[9] = test system: T9, Rep nickase domain of tomato yellow leaf curl virus
T9 sequence (residues 1-136 of Rep, tag left off): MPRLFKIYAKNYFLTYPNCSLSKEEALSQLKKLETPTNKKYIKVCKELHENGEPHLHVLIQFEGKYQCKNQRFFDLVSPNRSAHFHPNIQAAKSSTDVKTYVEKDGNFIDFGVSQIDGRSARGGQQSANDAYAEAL
Description: as §1

[10] = test system: T10, Rep nickase domain of wheat dwarf virus
T10 sequence (residues 1-137 of Rep, tag left off): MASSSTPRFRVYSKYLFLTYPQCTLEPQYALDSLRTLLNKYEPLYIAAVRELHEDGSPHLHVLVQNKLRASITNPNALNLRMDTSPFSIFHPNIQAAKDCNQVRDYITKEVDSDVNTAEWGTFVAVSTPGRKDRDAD
Description: as §1

| Sequence | uncleaved DNA left (log2) [1] | uncleaved DNA left (log2) [2] | uncleaved DNA left (log2) [3] | uncleaved DNA left (log2) [4] | uncleaved DNA left (log2) [5] | uncleaved DNA left (log2) [6] | uncleaved DNA left (log2) [7] | uncleaved DNA left (log2) [8] | uncleaved DNA left (log2) [9] | uncleaved DNA left (log2) [10] |
| --- | --- | --- | --- | --- | --- | --- | --- | --- | --- | --- |
| AAGCATC | -0.0246 | 0.108 | -0.0035 | -0.272 | -0.0293 | -0.424 | -0.0183 | -0.0608 | -0.0304 | 0.0867 |
| CGCGGGG | -0.0725 | -0.144 | 0.492 | 0.774 | -0.113 | 1.1 | -0.0278 | -0.000632 | -0.264 | 0.0251 |
| GGTCCAG | -0.0254 | 0.0492 | 0.685 | 1.44 | 0.0349 | 1.65 | 0.207 | 0.15 | 0.0577 | 0.151 |
| GAATAGA | 0.00824 | 0.0097 | -0.00193 | 0.209 | 0.00323 | -0.252 | -0.116 | -0.0231 | -0.0265 | -0.0609 |
| ACTGTGT | 0.0682 | -0.0381 | -0.369 | -0.622 | -0.144 | -1.01 | -0.177 | 0.0208 | -0.0374 | -0.0448 |
| CTGGCCC | 0.255 | 0.165 | 0.161 | 0.182 | -0.0499 | 0.383 | 0.0439 | 0.0548 | 0.125 | 0.121 |
| ACGTCCC | -0.127 | -0.0758 | -0.155 | -0.0173 | -0.225 | -0.333 | -0.128 | -0.143 | -0.108 | -0.17 |
| TAACAGA | 0.0913 | -0.0423 | -0.448 | -2.31 | 0.0471 | -0.874 | 0.00199 | 0.0051 | 0.0448 | 0.0133 |
| ACCGACA | 0.0181 | 0.125 | -0.078 | -0.613 | 0.0683 | -0.604 | 0.121 | 0.0509 | -0.0875 | -0.114 |
| CTTACCT | -0.106 | -0.101 | -0.371 | -2.63 | -0.0652 | -0.704 | -1.01 | -0.0701 | 0.0637 | -0.0134 |
| CCGGAAA | -0.06 | 0.00324 | 0.166 | 0.385 | -0.128 | 0.13 | 0.0776 | 0.0938 | -0.0893 | -0.127 |
| ACGCTAG | -0.0038 | 0.0597 | -0.564 | -0.405 | 0.137 | -1.05 | 0.188 | 0.0988 | 0.0737 | -0.102 |
| CGCCGCC | -0.138 | -0.0379 | -0.0742 | -0.133 | -0.102 | -0.361 | -0.128 | -0.283 | -0.147 | -0.0973 |
| CGAAAAT | -0.0484 | -0.142 | -0.125 | -0.528 | -0.114 | -0.571 | -0.279 | -0.133 | -0.0633 | -0.0654 |
| AGTAGTA | -0.103 | -0.0762 | -0.0595 | -0.616 | -0.136 | -0.251 | -1.22 | -0.0918 | -0.0145 | -0.0118 |
| TTGTTGC | 0.101 | 0.0137 | -0.669 | -0.231 | -0.00171 | -0.849 | 0.0691 | -0.0764 | 0.0146 | -0.163 |
| CGACACC | -0.102 | -0.084 | -0.0256 | 0.407 | -0.0657 | 0.555 | -0.0529 | -0.102 | -0.125 | 0.00206 |
| CCTCGTC | 0.0237 | -0.0847 | -0.222 | -0.494 | 0.0113 | -0.773 | -0.0172 | -0.193 | -0.138 | -0.162 |
| TTCTTTC | -0.0237 | -0.125 | 0.197 | -0.275 | 0.0576 | -0.533 | -0.0687 | -0.107 | -0.134 | 0.00496 |
| TGTCGCA | -0.00143 | 0.0351 | -0.126 | -0.686 | -0.025 | -0.878 | -0.122 | -0.0893 | 0.0566 | -0.107 |
| AGGAACG | -0.11 | 0.081 | -0.649 | -0.621 | 0.0345 | -0.896 | 0.195 | -0.00385 | -0.00595 | -0.11 |
| ATCACCG | 0.0567 | -0.0734 | -0.87 | -0.174 | 0.0195 | -0.931 | 0.132 | 0.00483 | -0.0511 | -0.0838 |
| CACACCG | -0.124 | -0.0235 | -0.774 | -0.0515 | -0.0112 | -0.622 | 0.169 | -0.0553 | 0.0344 | -0.0382 |
| GCAAGTC | -0.0473 | -0.0227 | -0.429 | -0.365 | -0.153 | -0.469 | 0.000897 | -0.0662 | -0.0918 | -0.132 |
| ATGGGGT | 0.0637 | -0.0998 | 0.201 | 1.31 | -0.0147 | 1.75 | 0.147 | 0.00794 | -0.202 | -0.13 |
| CCGAGCC | -0.0201 | 0.026 | 0.173 | 0.432 | 0.00168 | 0.136 | -0.298 | 0.018 | 0.0376 | 0.131 |
| TCGTTTT | -2.57 | -0.408 | -0.75 | -2.02 | -0.694 | -0.306 | -3.74 | -0.109 | -0.0572 | -0.236 |
| CCTTTTC | -0.205 | -0.191 | -0.169 | -0.347 | -0.0253 | -0.886 | -0.0759 | -0.148 | -0.13 | -0.131 |
| AACTGCG | -0.0542 | 0.00124 | 0.0641 | 1.33 | 0.0366 | 0.968 | 0.0825 | 0.023 | -0.146 | -0.105 |
| CAACAAG | -0.0315 | 0.0132 | -0.808 | -0.496 | 0.0225 | -1.23 | 0.168 | -0.0788 | 0.0503 | -0.0859 |
